Assay results: PubChem BioAssay AID1671188 (National Center for Advancing Translational Sciences (NCATS), 2021)
Out of some 100,000 compounds screened, about 250 (0.25%) were called active. This list was built around the results that the source calls inconclusive (neither active nor inactive); the mix of calls is not that of the screen. The call rests on the fitted dose curve; in most records, active means well fitted inhibition curve with a large enough effect; inconclusive means small, poorly fitted or top-dose-only effect; inactive means flat fitted curve, though single readings scatter. Potencies of inconclusive entries are left out as doubtful fits.

Biological target: Alanine aminotransferase 2 (Homo sapiens) (UniProt Q8TD30)
Experiment: Primary qHTS assay for inhibitors of Glutamate pyruvate transaminase 2 (GPT2); further: nearly all actives have a fitted effect of over 60% in size
Conditions: Recombinant GPT2, coupled pyruvate oxidase/HRP Amplex Red fluorescence; activity change, negative = inhibition: at 57.7 µM (top of the series) unless noted; series mostly up to 57.7 µM
Summary of the method: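 GPT2 10ng/uL, a-KG 250uM, L-Ala 2mM, HEPES pH7.5 + 0.0001% Tween; 30 min RT. Then Amplex mix (PO/HRP/ThPP), 30 min RT dark, fluorescence. AOA 50uM used as positive control.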
On the % scale 0 is the no-effect control and ±100 the full control effect; potency means the concentration at half of the fitted maximal effect; tags describe the fitted curve by direction and shape.

Chain of UniProt Q8TD30 (Q8TD30 whole entry, looked up): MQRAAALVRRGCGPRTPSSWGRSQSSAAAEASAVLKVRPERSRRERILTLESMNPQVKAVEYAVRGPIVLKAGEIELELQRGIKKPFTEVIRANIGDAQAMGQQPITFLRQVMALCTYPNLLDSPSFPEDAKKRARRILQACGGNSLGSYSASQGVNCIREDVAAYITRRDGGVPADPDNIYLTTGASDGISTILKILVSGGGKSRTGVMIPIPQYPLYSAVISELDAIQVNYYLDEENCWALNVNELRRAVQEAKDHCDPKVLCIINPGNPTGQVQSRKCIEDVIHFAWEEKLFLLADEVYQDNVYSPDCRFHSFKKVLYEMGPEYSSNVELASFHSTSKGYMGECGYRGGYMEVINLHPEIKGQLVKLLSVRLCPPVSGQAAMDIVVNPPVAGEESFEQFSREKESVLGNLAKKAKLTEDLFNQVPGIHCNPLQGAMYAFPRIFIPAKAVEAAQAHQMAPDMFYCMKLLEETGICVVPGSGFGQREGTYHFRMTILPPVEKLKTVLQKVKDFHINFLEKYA

| SMILES | Potency | activity change, negative = inhibition | outcome |
| --- | --- | --- | --- |
| COc1cc(NC(=O)c2cc3c(N4CCSCC4)nc(C)cn3n2)c(OC)cc1Cl | inconclusive [inhibitor, single point] | – | – |
| CN1C(=O)C(CC(=O)NCc2cccnc2-n2ccnc2)N(C)C1=O (centres undefined) | inconclusive [inhibitor, single point] | – | – |
| O=c1[nH]n(CCn2cc(C3CCCNC3)nn2)c(=O)c2ccccc12 (centres undefined) | – | inactive: -30.8% | – |
| COCCN1CCC(N2CCN(S(=O)(=O)c3ccc(F)c(F)c3)CC2)C1=O (centres undefined) | – | – | inactive |
| Cc1ccc(Cc2ccccc2C(=O)N2CCOC(C(F)(F)F)C2)cc1 (centres undefined) | inconclusive [inhibitor, single point] | – | – |
| CN1CCN(Cc2cn3c(=O)n(C)cc(-c4cccc(OC(F)(F)F)c4)c3n2)CC1 | – | inactive: -17.9% [at 88.5 µM] | – |
| Cc1cc(-c2cnc(Nc3ccc(F)cc3)c3c2CCO3)ccn1 | – | – | inactive [at 88.5 µM] |
| COc1ccc(CN2C[C@H]3CN(Cc4ccc(OC(F)(F)F)cc4)CCN3C2=O)cc1 | inconclusive [inhibitor, single point] | – | – |
| OC1(CN2CCC(CCn3cccn3)CC2)CCNC1 (centres undefined) | inconclusive [inhibitor, single point] | – | – |
| COCC(=O)N1CCCC(C(=O)N2CCCC(c3nc4ncccc4[nH]3)C2)C1 (centres undefined) | – | inactive: 4.06% | – |
| c1cc2nc(C3CCCN3)[nH]c2cn1 (centres undefined) | inconclusive [inhibitor, partial curve, poor fit] | – | – |
| COc1ccccc1-c1cccc(CN2CCC(NC(=O)Cc3ccc(F)cc3)CC2)c1 | inconclusive [inhibitor, single point] | – | – |
| CCCCNC(=O)c1ccc2c(c1)N(C(=O)c1ccc(OC)cc1)CC2 | inconclusive [inhibitor, single point] | – | – |
| C=C1OC2CC(C(=O)O)C=CC2NC1=O (centres undefined) | inconclusive [inhibitor, partial curve, poor fit] | – | – |
| CC(C)c1nccn1Cc1cc(C(=O)NC(C)c2ccncn2)n[nH]1 (centres undefined) | inconclusive [inhibitor, full curve, poor fit] | – | – |
| O=C(c1ccc(Cl)cc1)N1CC2(CCCN(CC3CCCCC3)C2)Cc2ccccc21 (centres undefined) | – | inactive: 3.99% | – |
| O=c1cc(N2CCOCC2)oc2c(NC3CCOCC3)nccc12 | inconclusive [inhibitor, full curve] | – | – |
| COCCN1CCCCCC(O)c2cc(C(=O)N3CCN(c4ccccn4)CC3)ccc21 (centres undefined) | inconclusive [inhibitor, single point] | – | – |
| C=C1C(=O)OC2C1CCC1(C)C(O)CC=C(C)C21 (centres undefined) | inconclusive [inhibitor, single point] | – | – |
| CO[C@H]1[C@H](NC(=O)Cc2c[nH]c3ccccc23)c2ccccc2C12CCNCC2 | – | inactive: 3.52% | – |
| O=C(Nc1nc2ccccc2n1CCc1ccccc1)c1ccccc1 | inconclusive [inhibitor, partial curve, poor fit] | – | – |
| CCCCOC(=O)c1ccc(N2CC3CCC(C2)N3CC(F)(F)F)nn1 | inconclusive [inhibitor, single point] | – | – |
| Cc1ccc(S(=O)(=O)N2CCN(C3CCN(Cc4ccccn4)C3=O)CC2)cc1F (centres undefined) | – | inactive: -24.2% | – |

| SMILES | Potency | activity change, negative = inhibition | outcome |
| --- | --- | --- | --- |
| Cc1cc(Cl)c2oc(C(=O)N(Cc3c(C)nn(C)c3C)C3CC3)c(C)c2c1 | – | – | inactive |
| O=C(Nc1ccccc1)[C@@H]1C[C@@H](c2cccc(C(F)(F)F)c2)N(CC2CCOCC2)C1 | inconclusive [inhibitor, single point] | – | – |
| OC[C@@H]1O[C@H](CNCc2ccc(F)cc2)[C@H](N2CCOCC2)[C@@H]1O | inconclusive [inhibitor, partial curve] | – | – |
| COc1ccccc1Nc1ccnc(N2CCC[C@H]2C(=O)NC(C)C)n1 | – | – | inactive |
| COCCOCC(=O)N1CCC2(CC1)CC(N(C1CC1)S(C)(=O)=O)CCO2 (centres undefined) | inconclusive [inhibitor, partial curve, poor fit] | – | – |
| O=C(NCc1cccc(C(F)(F)F)c1)C1CCN(c2cnn(CC3CC3)c(=O)c2)C1 (centres undefined) | – | – | inactive |
| Cc1cnc(C2CCOCC2)n1C1CCN(C(=O)C(C)Oc2ccccc2)CC1 (centres undefined) | inconclusive [inhibitor, single point] | – | – |
| Cc1ccc(C(=O)N2CCC(C(=O)N3CCC(N4Cc5ccccc5C4=O)CC3)CC2)cc1 | – | – | inactive |
| O=C(Nc1ccc2c(N3CCCC3)ncnc2c1)c1cc(F)ccc1Cl | – | – | inactive |
| COC[C@@H]1CN(c2ncccn2)C[C@H]1C(=O)NCCn1cccn1 | inconclusive [inhibitor, full curve, poor fit] | – | – |
| Cn1cnc(C(=O)NCC(=O)N2CCCCCNC(=O)CC2c2ccccc2)c1 (centres undefined) | – | inactive: 4.35% | – |
| COc1ccc(CCNC(=O)c2nc3sccn3c2-c2ccncc2)cc1 | – | – | inactive |
| Cn1cc(CN2CCC(C3CCN(S(C)(=O)=O)CC3)C2)c2ccccc21 (centres undefined) | inconclusive [inhibitor, single point] | – | – |
| O=c1cc(C2CC(NC3CCC4(CCNCC4)CC3)C2)nc(C2CC2)[nH]1 (centres undefined) | inconclusive [inhibitor, single point] | – | – |
| COc1cccc(Nc2cn(C)c(=O)n3cc(COc4ccccc4)nc23)c1 | inconclusive [inhibitor, partial curve, poor fit] | – | – |
| COCc1nc(C2CC(N)C2)cc(N(C)CCN2CCCCC2=O)n1 (centres undefined) | inconclusive [inhibitor, partial curve, poor fit] | – | – |
| O=C1N(C2CCCCC2)C[C@H]2CN(Cc3ccc(C(F)(F)F)cc3)CCN12 | – | – | inactive [at 88.5 µM] |
| COC[C@H]1C[C@@H](NC(=O)c2c(-c3ccccc3)noc2C)[C@H](O)[C@@H]1O | inconclusive [inhibitor, single point] | – | – |
| C=CCNC(=O)c1cnn2cc(C)ccc12 | – | – | inactive [at 88.5 µM] |
| CN(C)c1ncnc2sc3c(c12)CCN(Cc1ccc2cc[nH]c2c1)C3 | inconclusive [inhibitor, single point] | – | – |
| O=C(NCC1CC1)c1ccc2nc(-c3ccncc3)oc2c1 | – | – | inactive |
| CNC(=O)c1nc2cccnc2n(CCCOC)c1=O | inconclusive [inhibitor, single point] | – | – |
| COc1ccc(-c2nc(C3CC(=O)N(c4ccc(C)cc4)C3)no2)c(OC)n1 (centres undefined) | inconclusive [inhibitor, single point] | – | – |

| SMILES | Potency | activity change, negative = inhibition | outcome |
| --- | --- | --- | --- |
| O=C(CC1CCCCC1)N1CCC2(CC1)NC(=O)N(c1ccccc1)N2 | inconclusive [inhibitor, single point] | – | – |
| FC(F)(F)Oc1cccc(CN2CCNc3cc(Nc4cccnc4)ncc3C2)c1 | – | – | inactive [at 88.5 µM] |
| Cc1ncsc1CN(Cc1ccccc1)C(=O)CCn1nnnc1CN1CCOCC1 | inconclusive [inhibitor, single point] | – | – |
| COc1ccc(-c2ccc3ncc(Nc4cccc(F)c4)n3n2)cn1 | inconclusive [inhibitor, partial curve] | – | – |
| Cc1ccc([N+](=O)[O-])cc1S(=O)(=O)N(C)/N=C/c1cnc2ccc(Br)cn12 | inconclusive [inhibitor, single point] | – | – |
| CC1(C)C[C@H](NC2CCC2)[C@@]2(CCC(=O)NCc3cccnc3)CC[C@](C)(O)C[C@@H]12 | inconclusive [inhibitor, single point] | – | – |
| CN(C)c1ccc(CN2CCOC[C@H]2c2ncc(-c3cccc(F)c3)[nH]2)cc1 | inconclusive [inhibitor, full curve, poor fit] | – | – |
| CN1CCC2(Cc3ccccc3CN(C(=O)CN)C2)C1 (centres undefined) | – | – | inactive [at 88.5 µM] |
| COc1cccc(CC(=O)N2CCCN(c3cc(-c4ccccc4)[nH]n3)CC2)c1 | inconclusive [inhibitor, single point] | – | – |
| CN(C)C(=O)C1CN(C(=O)c2ccc3c(c2)OCO3)CC12CCOCC2 (centres undefined) | inconclusive [inhibitor, partial curve, poor fit] | – | – |
| Fc1ccc(OC2CNC2)cc1 | – | – | inactive [at 88.5 µM] |
| C=C1C(=O)O[C@@H]2/C=C(/C)[C@@H](OC(C)=O)C/C=C(\C)C[C@@H](OC(=O)/C(=C/CO)CO)[C@@H]12 | inconclusive [inhibitor, single point] | – | – |
| Cc1ccc(CN2CCC(CNc3ccncn3)CC2)o1 | inconclusive [inhibitor, single point] | – | – |
| CC(=O)N1CC2(CCCN2CC2CC2)Cc2ccccc21 (centres undefined) | – | inactive: -6.87% [at 88.5 µM] | – |
| O=C(NC1CCCCC1)c1nc2sccn2c1-c1cccc(C(F)(F)F)c1 | – | inactive: 2.99% | – |
| CC(=O)NC[C@H]1O[C@H](Cc2cc(CN3CCN(c4ccccc4)CC3)on2)CC[C@@H]1O | inconclusive [inhibitor, single point] | – | – |
| CNC(=O)CCn1ncc2cc(OC3CCc4cccc(-c5cccnc5OC)c43)ccc21 (centres undefined) | inconclusive [inhibitor, partial curve, poor fit] | – | – |
| Cc1ccc(CN2CCC3(Cc4ccccc4NC3=O)C2)cc1 (centres undefined) | – | – | inactive [at 88.5 µM] |
| O=C(C1CC1)N1CCN(C2CCN(Cc3ccccn3)C2=O)CC1 (centres undefined) | inconclusive [inhibitor, partial curve, poor fit] | – | – |
| COc1cccc(-n2cc(CN(C)c3nccc(-c4cccnc4)n3)cn2)c1 | inconclusive [inhibitor, single point] | – | – |
| Cc1ccccc1CC(=O)N1C[C@@H](CO)[C@H](NC(=O)c2ccccc2)C1 | – | inactive: -0.342% | – |
| Cc1noc(C)c1-c1cc(-c2cccnc2)cn2cncc12 | inconclusive [inhibitor, single point] | – | – |
| COc1ccc(-c2cc(-c3cccc(C(N)=O)c3)cn3cncc23)cc1 | – | inactive: -16.7% [at 88.5 µM] | – |
